The list shows a part of the results. One pool of 16,384 single-stranded DNAs met each Rep nickase domain in vitro (3 µM enzyme, 1 h, 37 °C); shown is the middle of each 90-letter strand. Values are log2 of uncut reads against the no-enzyme pool; the lower, the more was cut; hits are not called. Reads are scaled to the total, so uncut sequences can rise above 0 when many others are cut.
Legend:
Assay in all cases: uncleaved DNA left, log2 of reads against the no-enzyme library (log2 ratio); higher = less cleavage (more negative = more Rep cleavage of the k-mer); sequences stand for … in CTCGTCCG…ACCGGAGA
[1] = tested on: T1, Rep nickase domain of Muscovy duck circovirus
T1 sequence (Rep 1-111, printed without the tag): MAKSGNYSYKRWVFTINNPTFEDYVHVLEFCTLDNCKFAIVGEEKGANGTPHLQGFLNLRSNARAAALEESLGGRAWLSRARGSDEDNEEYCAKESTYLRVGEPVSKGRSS
Method: (§1)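 A pool of 90-nt single-stranded DNAs with seven random bases just before the constant AC of the nick site (name = the seven bases) was cut by 3 µM recombinant His6-SUMO-tagged Rep nickase domain (300 nM DNA, 50 mM HEPES pH 8.0, 50 mM NaCl, 1 mM MnCl2, 1 h, 37 °C, three replicates). Uncut DNA was amplified and sequenced.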

[2] = tested on: T2, Rep nickase domain of banana bunchy top virus
T2 sequence (Rep 1-94, printed without the tag): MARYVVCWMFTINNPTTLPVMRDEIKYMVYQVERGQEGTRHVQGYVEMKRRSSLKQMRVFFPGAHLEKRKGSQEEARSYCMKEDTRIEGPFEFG
Method: as §1

[3] = tested on: T3, Rep nickase domain of cabbage leaf curl virus
T3 sequence (Rep 1-116, printed without the tag): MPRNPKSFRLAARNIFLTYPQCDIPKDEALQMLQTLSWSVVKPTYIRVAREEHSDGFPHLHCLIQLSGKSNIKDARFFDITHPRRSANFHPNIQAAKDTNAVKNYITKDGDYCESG
Method: as §1

[4] = tested on: T4, Rep nickase domain of chickpea chlorotic dwarf virus
T4 sequence (Rep 1-124, printed without the tag): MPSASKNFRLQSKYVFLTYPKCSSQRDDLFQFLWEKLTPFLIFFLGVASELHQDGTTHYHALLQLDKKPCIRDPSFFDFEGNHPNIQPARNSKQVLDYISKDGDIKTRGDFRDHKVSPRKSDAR
Method: as §1

[5] = tested on: T5, Rep nickase domain of faba bean necrotic yellows virus
T5 sequence (Rep 1-98, printed without the tag): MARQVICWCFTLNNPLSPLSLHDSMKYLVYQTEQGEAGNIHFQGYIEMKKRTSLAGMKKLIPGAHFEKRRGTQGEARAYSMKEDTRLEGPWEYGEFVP
Method: as §1

[6] = tested on: T6, Rep nickase domain of maize striate mosaic virus
T6 sequence (Rep 1-117, printed without the tag): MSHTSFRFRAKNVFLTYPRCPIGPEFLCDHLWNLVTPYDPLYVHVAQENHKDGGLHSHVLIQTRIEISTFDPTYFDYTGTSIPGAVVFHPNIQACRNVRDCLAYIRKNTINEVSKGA
Method: as §1

[7] = tested on: T7, Rep nickase domain of porcine circovirus 2
T7 sequence (Rep 2-116, printed without the tag): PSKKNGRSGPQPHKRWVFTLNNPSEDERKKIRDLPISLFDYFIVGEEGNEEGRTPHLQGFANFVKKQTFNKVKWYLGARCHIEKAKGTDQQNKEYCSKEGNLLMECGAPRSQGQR
Method: as §1

[8] = tested on: T8, Rep nickase domain of tomato yellow leaf curl virus
T8 sequence (Rep 1-136, printed without the tag): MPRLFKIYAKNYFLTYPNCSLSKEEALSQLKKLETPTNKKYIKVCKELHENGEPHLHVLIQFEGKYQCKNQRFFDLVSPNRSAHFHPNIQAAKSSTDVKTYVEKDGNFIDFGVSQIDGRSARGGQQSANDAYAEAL
Method: as §1

[9] = tested on: T9, Rep nickase domain of wheat dwarf virus
T9 sequence (Rep 1-137, printed without the tag): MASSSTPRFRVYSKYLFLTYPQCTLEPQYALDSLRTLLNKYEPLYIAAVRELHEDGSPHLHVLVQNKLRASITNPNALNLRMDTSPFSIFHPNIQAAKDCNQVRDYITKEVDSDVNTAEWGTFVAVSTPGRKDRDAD
Method: as §1

Row | Sequence | uncleaved DNA left (log2) [1] | uncleaved DNA left (log2) [2] | uncleaved DNA left (log2) [3] | uncleaved DNA left (log2) [4] | uncleaved DNA left (log2) [5] | uncleaved DNA left (log2) [6] | uncleaved DNA left (log2) [7] | uncleaved DNA left (log2) [8] | uncleaved DNA left (log2) [9]
1 | CCCGCAT | -0.172 | -0.202 | -0.0399 | -0.478 | -0.104 | -0.589 | -0.226 | -0.214 | -0.156
2 | CCTTTCT | -1.22 | -0.00659 | -0.251 | -2.53 | -0.026 | -0.933 | -2.7 | 0.0183 | 0.0416
3 | ACTTCGA | -0.0357 | -0.144 | -0.84 | -0.71 | -0.00759 | -1.37 | 0.122 | -0.015 | -0.118
4 | GGCGGCG | -0.0476 | 0.0663 | -0.322 | -0.289 | 0.114 | -0.229 | 0.195 | 0.0646 | -0.0193
5 | GGCATGA | -0.0408 | 0.0627 | 0.589 | 1.48 | 0.0653 | 1.8 | 0.0683 | 0.0316 | 0.0481
6 | GGCCTTA | 0.124 | 0.014 | 0.605 | 1.1 | 0.153 | 1.69 | 0.192 | 0.141 | 0.137
7 | TGAGTCG | -0.0856 | -0.187 | -0.896 | -0.311 | 0.00672 | -1.02 | 0.101 | -0.055 | -0.158
8 | ACTGGCG | -0.0159 | 0.18 | 0.0559 | 1.46 | 0.119 | 1.01 | 0.217 | 0.169 | 0.0468
9 | TAAACTA | -0.0161 | 0.0397 | -1.73 | -2.83 | 0.132 | -0.651 | -0.218 | 0.0313 | -0.728
10 | ACTTTTT | -2.3 | -0.539 | -0.362 | -2.62 | 0.0865 | -0.947 | -3.37 | -0.0807 | -0.00285
11 | AACTGTC | 0.0468 | -0.11 | -0.0524 | 0.147 | -0.0285 | 0.107 | -0.24 | 0.00168 | 0.05
12 | TACTTGT | -2.12 | -0.606 | -0.246 | -0.668 | -0.0552 | 0.337 | -3.54 | -0.112 | -0.116
13 | CCGGAAC | 0.0514 | 0.0751 | 0.335 | 0.5 | 0.111 | 1.11 | 0.138 | -0.126 | -0.0195
14 | GGGCCCT | 0.126 | 0.117 | 0.801 | 1.75 | -0.0203 | 2.16 | 0.104 | 0.0267 | 0.0746
15 | CTAGAAA | 0.132 | 0.201 | 0.191 | 0.134 | 0.11 | -0.399 | 0.279 | 0.0318 | 0.211
16 | GCCTGCC | 0.174 | 0.115 | 0.205 | 0.405 | 0.159 | 0.0587 | 0.226 | 0.0805 | 0.0317
17 | CGTTTGT | -0.0581 | 0.0232 | -0.244 | -0.415 | 0.0912 | -0.623 | -0.355 | 0.17 | -0.0232
18 | TTGATTC | -0.0107 | -0.0557 | 0.131 | -0.124 | -0.168 | -0.79 | 0.00911 | -0.0167 | -0.0594
19 | ACTCTAG | -0.154 | -0.107 | -0.846 | -0.464 | -0.0975 | -1.03 | 0.141 | -0.0497 | -0.0584
20 | CGCGTCT | -0.0459 | -0.133 | -0.26 | -0.947 | 0.00874 | -0.314 | -0.12 | -0.138 | -0.143
21 | AGGGGCA | 0.164 | 0.0385 | 0.797 | 1.78 | 0.0887 | 2.03 | 0.355 | 0.0999 | 0.264
22 | CAGAATA | -0.132 | -0.185 | -0.28 | -2.22 | -0.112 | -0.524 | -1.7 | -0.136 | -0.12
23 | GTAAGTT | 0.0484 | 0.187 | -0.601 | -1.47 | 0.0801 | 1.55 | 0.184 | 0.124 | -0.0278
24 | AGTTACT | -3.5 | -2.56 | -0.691 | -2.53 | -0.949 | 0.497 | -4.3 | -0.094 | -0.345
25 | CTTTCTT | -3.12 | -0.686 | -0.309 | -2.72 | -0.0583 | -0.703 | -2.92 | -0.031 | -0.305
26 | GTTCTGG | -0.0308 | -0.114 | 0.304 | 0.83 | -0.191 | 1.28 | 0.00103 | -0.0478 | -0.0171
27 | AATGGCG | -0.00111 | 0.0351 | -0.421 | 1.03 | 0.0546 | 0.223 | 0.166 | 0.0567 | -0.0685
28 | TGACGAG | 0.0105 | -0.0176 | 0.356 | 0.416 | 0.00236 | 0.246 | 0.0763 | -0.104 | 0.0516
29 | TTCTCTG | 0.045 | -0.119 | -0.0317 | -0.294 | -0.108 | -0.203 | -0.059 | -0.0558 | -0.00707
30 | GAAAAGG | 0.0819 | 0.0996 | 0.424 | 1.04 | 0.0218 | 0.817 | 0.243 | 0.0992 | 0.114
